The supplement of paper PMC3334620
The full ranking holds about 33,000 sequences; the median of “E-score (-0.5 to 0.5)” is about -0.054, and the highest 2% start at about 0.39. This is one part of the list.

molecular target: Ylr278c (UniProt Q05854); test: PBM E-score (8-mer binding enrichment) (E-score (-0.5 to 0.5)); higher = stronger / more preferred TF binding; most listed sequences are background and not binding sites; conditions: protein concentration: 200 nM; construct: GST-DNA-binding domain
Method in brief: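 Bound GST-tagged yeast transcription factors, applied at about 100-200 nM to double-stranded universal all-10-mer Agilent arrays, were detected with fluorescent anti-GST. Scans were normalised with masliner. A modified Wilcoxon-Mann-Whitney statistic, the E-score, was assigned to each ungapped eight-base word pooled with its reverse complement by the Universal PBM Analysis Suite.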

Sequence	PBM E-score
GGTGGGTA	0.0728
CGCGACCA	0.121
CACGATTA	-0.0584
ATCCTTCG	0.167
ACTCGAAT	-0.189
CGTAGCGA	0.0415
AGATTATA	-0.121
AAACACGA	-0.061
ATTCTCCG	0.474
CACACGAG	-0.236
ATTTTGTA	0.119
TCAGCGAA	-0.0965
CAGCTTCA	-0.141
ATTGCGGA	0.33
CCGCAAGG	0.123
CTAACGCA	0.0237
GAGTCCAC	-0.0928
TATGAACA	-0.233
GCGAGGCA	0.0382
AAGACGCT	-0.26
ATTTAATA	0.0823
AAATGGAA	-0.0257
AAGAAGCA	-0.0169
GCGCTACC	-0.0779
TTATCAAA	-0.0329

Sequence	PBM E-score
CGAGAAAA	-0.0264
CTAATCGC	0.0688
GTGAGGTA	-0.128
CAGCCACC	0.0671
AGTAATAT	0.0206
CTCAGACC	-0.0578
CACAAAAG	0.0739
CAGGGCTC	-0.234
CCTCGACA	-0.257
CTGTCAGA	-0.135
CTACAGTA	-0.152
CTGCAATC	0.0675
TAAGATGA	-0.288
ATCCGTAG	0.134
GACAATAC	0.0465
ATGGAGAA	0.148
AGTCCGAC	0.431
AGAACGGA	0.256
GGAAATAC	0.315
AGCGTTAC	-0.221
CCCCAGAC	-0.18
ACGCAACG	0.102
ATATAGAC	-0.134
CACCGTAA	-0.066
AGTCGTTC	-0.247

Sequence	PBM E-score
AGATGGAT	-0.17
ACTCAAAA	-0.111
CACCTCGA	0.0348
CCCAGGTC	-0.278
ATTCTTAC	-0.0377
CCTGCGCC	0.0201
ATTAGAGG	-0.113
AAAACTCG	0.0801
TCACTGAA	0.00301
CATCTCTC	0.142
AGTAGTGG	-0.0421
CGGGTCTA	0.0509
ACTGACCC	0.044
AGGCGGGC	0.204
ACATGTCA	-0.252
AATTAGAA	0.0532
ATAAAGGC	-0.00968
ACCCGTAC	0.0229
AGAACTCA	-0.137
CCAAACCA	-0.035
GGCGCACC	0.00028
AGACGTAT	-0.0968
AGTGATCA	-0.148
GTTATTAA	0.152
AACTGCAG	-0.15

Sequence	PBM E-score
TAGGATCA	-0.199
AACGCGAG	-0.0409
GACACTTA	-0.143
GCTGCAGA	-0.111
AAACACTT	-0.159
ATGTCAAA	-0.0843
GCCCCGGA	0.439
GCAACCCA	-0.292
ACACGCAA	-0.151
AGTTTGAT	0.0532
CAAAGTGA	-0.0515
CAACCCCA	0.124
CAGACACC	-0.112
GGCAACGA	0.0175
ACGATACG	-0.323
CGGTCTCC	0.304
CGAAGGGA	-0.0862
CTAGTCCA	-0.0179
CCCGACCG	0.324
GAATCGGA	0.409
CACCGTGC	-0.0579
CCGCGGAA	0.414
CCCGGACC	0.376
CTACGAAA	-0.206
CATAAAGA	-0.176

Sequence	PBM E-score
AGCACCAC	-0.207
GCCGTGCC	0.102
TCAGTACA	-0.1
AATACCGT	0.211
CTCTGACA	-0.148
ATGTTCCC	-0.0151
AACTGCAA	0.0771
CCCCGTCA	0.204
ACCCCTAG	-0.27
ACGTATAA	-0.188
ATTCCAGC	-0.104
AGTCTTCC	-0.0317
CGGATGCA	0.2
GGTGAGAC	-0.184
GAATTTGC	0.199
AGGAAAGC	-0.0801
ACTAAAGT	-0.236
CGACAATC	0.171
CTTGAAGC	-0.168
GAACTCAC	-0.219
ATAGGCGC	0.118
GCCCTGGA	-0.12
CCCGATGC	0.282
ACACAAAC	0.0115
ACACCAGT	-0.341

Sequence	PBM E-score
AGAACCCA	-0.304
GAGGACCA	-0.0565
TATTTGGA	-0.218
GGCTATGA	-0.0494
CATAGGAA	-0.149
CCCAGACA	-0.118
CCACGAGA	-0.136
AGTCCTCC	0.0204
GCACTGAC	-0.0988
CGCGCAAC	0.183
ATGGACCA	-0.156
AATCTAAT	-0.0263
CGGCGGAA	0.438
GTGTGTTA	-0.171
ATCCGTGC	0.125
CTAGAGTA	-0.0401
ATCAATAG	-0.218
CTCCCTCA	-0.222
AACCCTTC	-0.0623
AATTCGTC	-0.0112
AAATGGGG	-0.252
CCACGTTA	-0.19
ATAGGACA	-0.311
ACTATCCA	-0.0732
CCGCAGCA	0.219

Sequence	PBM E-score
ATTACCTG	-0.0781
CTTTTAAA	0.0549
AAGGCCGT	0.142
AGGCGCCG	0.206
AGTGTTAC	0.0451
ACCGCATG	-0.0592
ACGCTTGA	-0.111
AAATGGCA	-0.0287
GTAGTATA	-0.00386
AAGGCTTA	-0.306
CATGCTCG	-0.194
CAAAGGGC	-0.0353
ATGGGACG	-0.103
ATGTTAAT	-0.0421
GAGGGACA	-0.0911
ATTCTAAA	-0.0463
CCAGCCGC	0.274
CCATTGAC	-0.0901
AGATTAAA	0.0622
TCCGTTCA	0.266
AGAGTACG	-0.0578
AACGTAAT	-0.223
